# Assay results from article PMC4336329 (PLoS ONE, 2015).
# About 14,000 (4.5%) of roughly 310,000 compounds showed an effect of 50% or more. Effects have a minus sign here. The list shows a part of the results.
# Molecular target: human ether-à-go-go-related gene (hERG) potassium channel (human, UniProt Q12809)
# Test: primary screen, population patch clamp on CHO cells stably expressing hERG
# 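Also: peak tail current of the secondary pulse compared with the same well before compound.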
# Chain of human ether-à-go-go-related gene (hERG) potassium channel (Q12809 whole entry, looked up): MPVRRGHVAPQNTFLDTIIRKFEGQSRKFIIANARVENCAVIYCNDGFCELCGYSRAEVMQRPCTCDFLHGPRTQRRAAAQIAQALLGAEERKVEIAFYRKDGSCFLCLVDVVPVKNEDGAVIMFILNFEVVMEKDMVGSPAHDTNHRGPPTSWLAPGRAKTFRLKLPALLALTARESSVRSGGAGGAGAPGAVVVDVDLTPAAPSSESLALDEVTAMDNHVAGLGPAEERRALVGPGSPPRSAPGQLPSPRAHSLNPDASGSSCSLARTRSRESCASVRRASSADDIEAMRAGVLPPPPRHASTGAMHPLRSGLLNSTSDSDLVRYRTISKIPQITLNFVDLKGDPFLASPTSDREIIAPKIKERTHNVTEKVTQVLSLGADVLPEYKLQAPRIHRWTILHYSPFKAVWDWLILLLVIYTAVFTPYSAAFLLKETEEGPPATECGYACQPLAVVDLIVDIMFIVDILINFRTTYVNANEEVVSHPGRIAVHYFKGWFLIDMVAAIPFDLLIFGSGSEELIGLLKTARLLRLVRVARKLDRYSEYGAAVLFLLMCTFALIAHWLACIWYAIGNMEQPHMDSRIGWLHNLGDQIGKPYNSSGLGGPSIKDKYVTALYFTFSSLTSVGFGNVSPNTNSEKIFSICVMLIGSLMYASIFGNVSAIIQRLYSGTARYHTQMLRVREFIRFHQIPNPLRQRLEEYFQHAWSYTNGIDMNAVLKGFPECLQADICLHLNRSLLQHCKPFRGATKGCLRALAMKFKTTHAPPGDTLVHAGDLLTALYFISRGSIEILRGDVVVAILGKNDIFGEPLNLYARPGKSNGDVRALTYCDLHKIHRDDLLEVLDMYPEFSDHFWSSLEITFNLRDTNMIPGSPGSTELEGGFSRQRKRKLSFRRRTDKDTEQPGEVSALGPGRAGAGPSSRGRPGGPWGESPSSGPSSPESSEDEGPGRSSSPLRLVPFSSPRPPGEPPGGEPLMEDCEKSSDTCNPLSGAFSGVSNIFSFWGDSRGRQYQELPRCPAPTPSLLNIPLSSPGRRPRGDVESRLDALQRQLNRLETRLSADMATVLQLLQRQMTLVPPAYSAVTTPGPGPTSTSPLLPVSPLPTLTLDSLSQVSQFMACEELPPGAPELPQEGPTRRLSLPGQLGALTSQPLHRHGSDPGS
row,SMILES,"hERG current change (%, negative = inhibition) at 10uM [%]"
1,COc1ccc(OC)c(-c2cc(C(=O)N3CCCc4ccccc43)no2)c1,3.02
2,N#Cc1ccc(C(=O)Nc2nc(SCc3ccc(Cl)cc3)n[nH]2)cc1,58.2
3,COc1ccc(C(CNC(=O)C2CC2)N(C)C)cc1 (centres unmarked),1.52
4,Cc1ccc(-c2csc(NC(=O)c3ccc(-c4ccccc4)cc3)n2)o1,15.8
5,CCN(CC)CCCN1C(=O)C(O)=C(C(=O)c2ccco2)C1c1ccc(C)o1 (centres unmarked),0.173
6,O=C(CSc1cccc[n+]1[O-])NCCCc1ccccc1,0.0216
7,CO/C(N)=C(\C#N)N=Cc1ccccc1Cl,20.9
8,COc1cc2[nH]c(=O)n(CCC(=O)N3CCN(c4cccc(C)c4C)CC3)c(=O)c2cc1OC,-16.3
9,Cc1cc(C)n2c(SCc3ccc(Cl)cc3Cl)nnc2n1,-5.51
10,Cc1ccccc1NS(=O)(=O)c1nnc(NC(=O)C(C)C)s1,20.6
11,CN(C)S(=O)(=O)N1CCN(c2cccc(Cl)c2)CC1,-7.28
12,FC(F)(F)c1ccc(CSc2ccccn2)cc1,5.44
13,Cc1ccc(S(=O)(=O)N2CCN(C)CC2)c2nsnc12,24.1
14,CCCc1c(C(=O)N/N=C(\C)CCc2ccccc2)nnn1-c1nonc1N,4.63
15,Cc1ccc(C(=O)/C=C/c2ccc3c(c2)OCCO3)c(O)c1,16.4
16,O=C(Nc1cccc(F)c1)c1c(O)c2cccc3c2n(c1=O)CCC3,8.07
17,Br.CC1CCCC(C)N1Cc1cn2ccccc2n1 (centres unmarked),7.29
18,CCn1ccnc1CNC(=O)CC1C(=O)NCCN1Cc1ccccc1F (centres unmarked),0.249
19,CCOC(=O)C1=C(C)NC(=O)NC1c1ccc(OCC(=O)Nc2ccccc2)c(OC)c1 (centres unmarked),-26.5
20,COc1ccc(-c2cc(-c3cccs3)nc(OC)c2C#N)cc1OC,30.3
21,O=C(Nc1ccncc1)c1c(F)c(F)c(F)c(F)c1F,18
22,COc1ccc(-c2cc(C(=O)NC(C)C)no2)cc1,0.389
23,CCN(CC(=O)Nc1cc(Cl)ccc1C)C(=O)CSCc1ccc(C)cc1,-9.48

row,SMILES,"hERG current change (%, negative = inhibition) at 10uM [%]"
1,CCCCC(O)(CCCC)C(=O)NN(C(=O)OC)c1ccccc1,3.62
2,COc1ccc(S(=O)(=O)N(CC(=O)NCc2ccco2)c2ccccc2)cc1,1.06
3,O=[N+]([O-])/C=C/c1ccc2c(ccn2Cc2ccccc2)c1,15.8
4,O=C(COC(=O)c1ccccc1Br)Nc1nnc(-c2ccccc2)o1,-6.09
5,CCC1(C)CC(c2csc(N)n2)CCO1 (centres unmarked),-19.4
6,CCOc1ccc(N(CC(=O)N2CCN(Cc3ccccc3)CC2)S(C)(=O)=O)cc1,-12.2
7,Cc1cc(C)c(S(=O)(=O)C(C)C)c(=O)[nH]1,11.9
8,O=[N+]([O-])c1ccc(OCCO)nc1,11.2
9,COc1ccccc1NC1=NCCS1,-9.72
10,O=S(=O)(NC1=NCCC1)c1ccc(F)cc1,6.15
11,O=Cc1c(NCc2cccc(F)c2)c2ccccc2[nH]c1=O,4.17
12,C=CCN1C(=O)CSC1=Nc1ccc(NC(C)=O)cc1,-4.78
13,O=C(NC(=S)Nc1ncccn1)c1ccccc1Br,13.6
14,C/C(=N\c1nc2ccccc2n1C)c1cc(Cl)ccc1O,-5
15,Cc1cccc(NC(=O)CSCC(=O)Nc2cc(Cl)ccc2N2CCN(C)CC2)c1,-72.8
16,Cc1cc(C)nc(SCC(=O)c2ccc(F)c(C)c2)n1,7.94
17,Cc1cc(C)nc(/N=C(\N)Nc2ccc(SC(F)F)cc2)n1,-74.7
18,O=C(NN1C(=O)/C(=C/c2cccs2)SC1=S)c1cccnc1,13.7
19,Cc1c(N2C(=O)C(=O)/C(=C(/O)c3ccccc3)C2c2ccc(F)cc2)c(=O)n(-c2ccccc2)n1C (centres unmarked),9.58
20,CC(NS(=O)(=O)c1ccccc1)C(c1cccs1)N1CCOCC1 (centres unmarked),0.443
21,CC(C)(C)c1ccc(S(=O)(=O)O/N=C2/CCCCC2c2ccc([N+](=O)[O-])cc2[N+](=O)[O-])cc1 (centres unmarked),-2.18
22,CCc1nnc(NC(=O)[C@@H]2CCCN2S(=O)(=O)c2ccc3c(c2)OCCO3)s1,3.86
23,O=C(CCc1ccccc1)NC(=S)Nc1cccc(C(=O)O)c1,13.2

row,SMILES,"hERG current change (%, negative = inhibition) at 10uM [%]"
1,Cc1cccc(N2CCN(C(=O)C3CCN(S(=O)(=O)c4cccnc4)CC3)CC2)c1C,-35.1
2,O=C(NCCS(=O)(=O)N1CCN(c2cccc(Cl)c2)CC1)c1ccc2c(c1)OCO2,8.12
3,Cn1ccnc1SCC(=O)Nc1ccccc1,-0.72
4,CCCC(c1nnnn1Cc1ccccc1)N1CCN(c2ccccc2OC)CC1.Cl (centres unmarked),5.61
5,Cc1[nH]c2ccc(C(=O)NCCCN3CCCCCC3)cc2c1C,-13.1
6,CCn1c(SCC(=O)Nc2ccc(OC)c(OC)c2)nnc1-c1ccco1,-0.908
7,O=C(NCCOc1ccc(F)cc1)C1CCC(=O)N(CCCN2CCCC2=O)C1 (centres unmarked),17
8,CCOC(=O)c1cc2c(ccn2C)n1CC(=O)N(Cc1ccccc1)c1ccccc1,-22.6
9,CCS(=O)(=O)N1CCC(NC(=O)c2ccco2)CC1,3.51
10,Cc1cc(=O)n2nc(-c3ccccc3)sc2n1,8.94
11,COC(=O)c1ccc2c(=O)n(C3CCCCC3)c(SCC#N)nc2c1,18.2
12,Cc1cccc(NC(=O)CN2C(=O)S/C(=C\c3ccc(O)c([N+](=O)[O-])c3)C2=O)c1,15.7
13,CCN1CCN(c2nc(C)c3c(n2)CCCC3=O)CC1,7.28
14,CCCC12CN3CC(C)(CN(C1)C3c1ccc(OC)cc1)C2=O (centres unmarked),-6.04
15,COc1cc(/C=C2/C(=O)NN(c3ccc(Cl)cc3)C2=O)ccc1OC(=O)c1ccco1,12.3
16,Cc1nc2cc(C(F)(F)F)ccc2n1C1CCN(Cc2nnnn2Cc2ccc3c(c2)OCO3)CC1,-54.1
17,O=C(NCCOc1ccccc1)c1ccc2n[nH]nc2c1,0.536
18,Nc1c(C(=O)Nc2ccccc2)sc2nc3c(c(-c4ccco4)c12)CCCC3,15.2
19,CC(OC(=O)CCCC(=O)Nc1ccc(F)cc1)C(=O)c1ccccc1 (centres unmarked),-5.79
20,Cc1cccn2c(=O)c3cc(C(=O)NC4CCCC4)c(=N)n(C4CCCC4)c3nc12,-79.2
21,N#C/C(=C/c1ccc(F)cc1)S(=O)(=O)c1ccccc1,21.3
22,Nc1nnc(SCC(=O)NNC(=O)c2ccc(Cl)cc2)s1,-0.0303
23,COc1ccc(NC(=O)C2CC(=O)n3cnnc3S2)cc1 (centres unmarked),-0.251

row,SMILES,"hERG current change (%, negative = inhibition) at 10uM [%]"
1,COc1ccc(CCN2CC(C(=O)N3CCC(O)(c4ccccc4)CC3)CCC2=O)cc1 (centres unmarked),-12.5
2,Cn1nc(C(=O)Nc2c(-c3ccccc3)nc3sccn23)c2ccccc2c1=O,16.1
3,COc1ccc(NC(=O)C2CCC(CNS(=O)(=O)c3csc(C(N)=O)c3)CC2)cc1OC (centres unmarked),15.3
4,O=C(NC1=NCCS1)c1cccc(NC(=O)c2ccco2)c1,8.61
5,O=c1[nH]cnc2c1N=C(c1cccc([N+](=O)[O-])c1)CC(c1ccccc1)N2 (centres unmarked),13.1
6,COc1ccc(CN2C(=O)c3cccnc3C2=O)cc1S(=O)(=O)N1CCOc2ccccc21,-14.1
7,CCN(CC)C(=O)C(=O)N/N=C/c1ccc(Cl)cc1Cl,11.6
8,COc1ccccc1Cn1c(=S)[nH]c2cc(C(=O)N3CCCC3)ccc2c1=O,23.5
9,O=C(Nc1cc([N+](=O)[O-])ccc1Cl)c1ccc2c(c1)OCO2,-0.172
10,CCOC(=O)CSc1ccc(C(=O)NCCCN2CCOCC2)cc1[N+](=O)[O-],10.2
11,CN(C(=O)c1ccc(-c2ccccc2)cc1)C1CCCCC1,1.5
12,Cc1cc(C(=O)NN)c(C)o1,10.3
13,COc1cccc(NC(=S)NNC(=O)Cn2nc([N+](=O)[O-])cc2C)c1,22.9
14,Cc1ccccc1Oc1cccc(C(=O)/C(C#N)=C/N(C)C)c1,-14
15,O=C(NCc1ccc2c(c1)OCO2)c1ccco1,3.19
16,CCCC(=O)NC(C)C(c1cccs1)N1CCN(c2ccccc2)CC1 (centres unmarked),-7.64
17,CCN(c1ccccc1)S(=O)(=O)c1ccc(C(=O)OC(C)C(=O)NCCC2=CCCCC2)cc1 (centres unmarked),-8.54
18,CCOC(=O)CCN(Cc1sccc1C)S(=O)(=O)c1ccc(F)cc1,-9.06
19,O=c1[nH]c(C2CCN(S(=O)(=O)c3ccc(S(=O)(=O)NC4CC4)cc3)CC2)nc2c1nnn2Cc1ccc(F)cc1,3.81
20,c1ccc(-c2csc3ncnc(NCc4ccccn4)c23)cc1,-20.7
